Measured values: the supplement of paper PMC8728848
Some of the results follow.

Experiments:
Test in all cases: glycan array binding signal (z-score within array); higher = stronger binding
Settings in all cases: glycan notation: IUPAC condensed, linker removed
Gal(a1-4)Gal(b1-4)Glc = target: Gal(a1-4)Gal(b1-4)Glc
Outline: (§1)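 Arrays were curated from the Consortium for Functional Glycomics database, 3228 in total, and kept only where the protein sequence was available. Binding is expressed as a within-array Z-score. This score was averaged across arrays of the same protein sequence at different concentrations or buffers and across linkers, and negative values can be read as non-binding.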

Gal(a1-4)Gal(b1-4)GlcNAc = target: Gal(a1-4)Gal(b1-4)GlcNAc
Outline: as §1

Gal(a1-4)GlcNAc = target: Gal(a1-4)GlcNAc
Outline: as §1

Gal(a1-6)Glc = target: Gal(a1-6)Glc
Outline: as §1

Gal(b1-2)Gal = target: Gal(b1-2)Gal
Outline: as §1

Gal(b1-3)Gal = target: Gal(b1-3)Gal
Outline: as §1

Gal(b1-3)GalNAc = target: Gal(b1-3)GalNAc
Outline: as §1

[1] = target: Gal(b1-3)GalNAc(b1-3)Gal(a1-4)Gal(b1-4)Glc
Outline: as §1

[2] = target: Gal(b1-3)GalNAc(b1-4)Gal(b1-4)Glc
Outline: as §1

[3] = target: Gal(b1-3)GalNAc(b1-4)[Neu5Ac(a2-3)]Gal(b1-4)Glc
Outline: as §1

Gal(b1-3)GlcNAc = target: Gal(b1-3)GlcNAc
Outline: as §1

[4] = target: Gal(b1-3)GlcNAc(b1-3)Gal(b1-4)Glc
Outline: as §1

[5] = target: Gal(b1-3)GlcNAc(b1-3)Gal(b1-4)GlcNAc
Outline: as §1

[6] = target: Gal(b1-3)[Fuc(a1-4)]GlcNAc
Outline: as §1

[7] = target: Gal(b1-3)[Fuc(a1-4)]GlcNAc(b1-3)Gal(b1-4)GlcNAc
Outline: as §1

[8] = target: Gal(b1-3)[Fuc(a1-4)]GlcNAc(b1-3)Gal(b1-4)[Fuc(a1-3)]GlcNAc
Outline: as §1

[9] = target: Gal(b1-3)[GlcNAc(b1-6)]GalNAc
Outline: as §1

[10] = target: Gal(b1-3)[Neu5Ac(a2-6)]GalNAc
Outline: as §1

[11] = target: Gal(b1-3)[Neu5Ac(a2-6)]GlcNAc(b1-6)Gal(b1-4)Glc
Outline: as §1

[12] = target: Gal(b1-3)[Neu5Ac(b2-6)]GalNAc
Outline: as §1

[13] = target: Gal(b1-4)GalNAc(a1-3)[Fuc(a1-2)]Gal(b1-4)GlcNAc
Outline: as §1

[14] = target: Gal(b1-4)GalNAc(b1-3)[Fuc(a1-2)]Gal(b1-4)GlcNAc
Outline: as §1

Gal(b1-4)Glc = target: Gal(b1-4)Glc
Outline: as §1

Gal(b1-4)Glc6S = target: Gal(b1-4)Glc6S
Outline: as §1

Gal(b1-4)GlcNAc = target: Gal(b1-4)GlcNAc
Outline: as §1

[15] = target: Gal(b1-4)GlcNAc(b1-2)Man(a1-3)[Gal(b1-4)GlcNAc(b1-2)Man(a1-6)]Man(b1-4)GlcNAc(b1-4)GlcNAc
Outline: as §1

[16] = target: Gal(b1-4)GlcNAc(b1-3)Gal(b1-4)Glc
Outline: as §1

[17] = target: Gal(b1-4)GlcNAc(b1-3)Gal(b1-4)GlcNAc
Outline: as §1

[18] = target: Gal(b1-4)GlcNAc(b1-3)Gal(b1-4)GlcNAc(b1-3)Gal(b1-4)GlcNAc
Outline: as §1

[19] = target: Gal(b1-4)GlcNAc(b1-3)Gal(b1-4)[Fuc(a1-3)]GlcNAc(b1-3)Gal(b1-4)[Fuc(a1-3)]GlcNAc
Outline: as §1

[20] = target: Gal(b1-4)GlcNAc(b1-3)GalNAc
Outline: as §1

[21] = target: Gal(b1-4)GlcNAc(b1-3)[Gal(b1-4)GlcNAc(b1-6)]GalNAc
Outline: as §1

[22] = target: Gal(b1-4)GlcNAc(b1-6)Gal(b1-4)GlcNAc(b1-6)GalNAc
Outline: as §1

[23] = target: Gal(b1-4)GlcNAc(b1-6)GalNAc
Outline: as §1

[24] = target: Gal(b1-4)GlcNAc(b1-6)[Gal(b1-3)]GalNAc
Outline: as §1

Gal3S(b1-3)GalNAc = target: Gal3S(b1-3)GalNAc
Outline: as §1

Gal3S(b1-3)GlcNAc = target: Gal3S(b1-3)GlcNAc
Outline: as §1

[25] = target: Gal3S(b1-3)[Fuc(a1-4)]GlcNAc
Outline: as §1

Gal3S(b1-4)Glc = target: Gal3S(b1-4)Glc
Outline: as §1

Gal3S(b1-4)Glc6S = target: Gal3S(b1-4)Glc6S
Outline: as §1

Gal3S(b1-4)GlcNAc = target: Gal3S(b1-4)GlcNAc
Outline: as §1

Gal3S(b1-4)GlcNAc6S = target: Gal3S(b1-4)GlcNAc6S
Outline: as §1

Gal3S6S(b1-4)GlcNAc = target: Gal3S6S(b1-4)GlcNAc
Outline: as §1

Gal3S6S(b1-4)GlcNAc6S = target: Gal3S6S(b1-4)GlcNAc6S
Outline: as §1

Gal4S(b1-4)GlcNAc = target: Gal4S(b1-4)GlcNAc
Outline: as §1

B1: MPA (Maclura pomifera) (protein)
chain: GVTFDDGAYTGIREINFEYNSETAIGGLRVTYDLNGMPFVAEDHKSFITGFKPVKISLEFPSEYIVEVSGYVGKVEGYTVIRSLTFKTNKQTYGPYGVTNGTPFSLPIENGLIVGFKGSIGYWLDYFSIYLSLNGPNGKSQSIIVGPWGDRVTN
Q: What does the source list for B1?
A: glycan array binding signal (z-score) (Gal(a1-4)Gal(b1-4)Glc): -0.24; glycan array binding signal (z-score) (Gal(a1-4)Gal(b1-4)GlcNAc): -0.24; glycan array binding signal (z-score) (Gal(a1-4)GlcNAc): 2.68; glycan array binding signal (z-score) (Gal(a1-6)Glc): 1.01; glycan array binding signal (z-score) (Gal(b1-2)Gal): -0.224; glycan array binding signal (z-score) (Gal(b1-3)Gal): 0.227; glycan array binding signal (z-score) (Gal(b1-3)GalNAc): 3.3; glycan array binding signal (z-score) [1]: -0.24; glycan array binding signal (z-score) [2]: -0.246; glycan array binding signal (z-score) [3]: -0.247; glycan array binding signal (z-score) (Gal(b1-3)GlcNAc): -0.232; glycan array binding signal (z-score) [4]: -0.243; glycan array binding signal (z-score) [5]: -0.244; glycan array binding signal (z-score) [6]: -0.229; glycan array binding signal (z-score) [7]: -0.224; glycan array binding signal (z-score) [8]: -0.217; glycan array binding signal (z-score) [9]: -0.242; glycan array binding signal (z-score) [10]: -0.246; glycan array binding signal (z-score) [11]: -0.244; glycan array binding signal (z-score) [12]: -0.247; glycan array binding signal (z-score) [13]: -0.244; glycan array binding signal (z-score) [14]: -0.249; glycan array binding signal (z-score) (Gal(b1-4)Glc): -0.209; glycan array binding signal (z-score) (Gal(b1-4)Glc6S): -0.217; glycan array binding signal (z-score) (Gal(b1-4)GlcNAc): -0.198; glycan array binding signal (z-score) [15]: -0.202; glycan array binding signal (z-score) [16]: -0.234; glycan array binding signal (z-score) [17]: -0.225; glycan array binding signal (z-score) [18]: -0.249; glycan array binding signal (z-score) [19]: -0.227; glycan array binding signal (z-score) [20]: 5.97; glycan array binding signal (z-score) [21]: -0.166; glycan array binding signal (z-score) [22]: -0.17; glycan array binding signal (z-score) [23]: -0.161; glycan array binding signal (z-score) [24]: -0.158; glycan array binding signal (z-score) (Gal3S(b1-3)GalNAc): 4.41; glycan array binding signal (z-score) (Gal3S(b1-3)GlcNAc): -0.237; glycan array binding signal (z-score) [25]: -0.183; glycan array binding signal (z-score) (Gal3S(b1-4)Glc): -0.228; glycan array binding signal (z-score) (Gal3S(b1-4)Glc6S): -0.222; glycan array binding signal (z-score) (Gal3S(b1-4)GlcNAc): -0.225; glycan array binding signal (z-score) (Gal3S(b1-4)GlcNAc6S): -0.228; glycan array binding signal (z-score) (Gal3S6S(b1-4)GlcNAc): -0.233; glycan array binding signal (z-score) (Gal3S6S(b1-4)GlcNAc6S): -0.23; glycan array binding signal (z-score) (Gal4S(b1-4)GlcNAc): -0.232
